Reference: PubChem BioAssay AID463173 (ICCB-Longwood Screening Facility, Harvard Medical School, 2010)
About 1,700 (3.3%) of roughly 52,000 compounds were called active. Cut-off read from the data, not from the text of the source: active = survival mostly below about 52% (no sharp cut-off); inactive = mostly above about 56%. The list shows a part of the results.

test system: Wild type; experiment: growth inhibition of S. aureus wild type versus tarO mutant, primary screen, teichoic acid synthesis inhibitors, RN4220, OD600 (AID 463173); details: S. aureus RN4220 wild type/DeltatarO growth, OD600, 18 h, active compounds read low, screened at 18.75 µg/mL (by protocol)

Compound	survival
CCC(=O)Nc1ccc(Cl)cn1	inactive: 112%
CCOc1ccc(C2CC(=O)c3c([nH]c(C(=O)OC4CCC(C)CC4)c3C)C2)cc1 (stereo unspecified)	inactive: 78%
COc1ccccc1N1CCN(C(=O)CN2C(=O)COc3ccc(S(=O)(=O)N4CCCC4)cc32)CC1	inactive: 130%
Cc1ccc(CN(Cc2cccn2-c2nnc(N3CCCC3=O)s2)C(=O)Nc2ccccc2C(F)(F)F)cc1	inactive: 115%
Cc1ccc(CNC(=O)Cn2c(=O)n(Cc3ccccc3)c(=O)c3sc4ccccc4c32)cc1	inactive: 88%
CC(C)CCNC(=O)Nc1ccc2c(c1)N(Cc1ccccc1)C(=O)c1ccccc1S2	inactive: 100%
CCc1ccc(NC(=O)Cc2c(C(=O)O)c(C)cn2C)cc1	inactive: 76%
Cc1ccccc1Nc1c(-c2ccc(Br)o2)nc2ccc(Cl)cn12	active: 10%
Cc1ccc(S(=O)(=O)CC(=O)Nc2sc3c(c2C(N)=O)CCCC3)cc1	inactive: 87%
Cc1ccc(NC(=O)CCN2CCN(CCO)CC2)cc1C	inactive: 75%
COc1ccc(CCNC(=O)c2ccc3c(c2)N(Cc2ccc(Cl)cc2)C(=O)c2ccccc2S3)cc1OC	inactive: 55%
CCOc1ccc(-c2nn(CC(=O)NC3CCCC3)c3c2cnc2ccc(C)cc23)cc1	inactive: 81%
COc1cc(OC)c(NC(=O)c2cc(C)nc3c2c(C)nn3-c2ccc(C)cc2)cc1Cl	inactive: 101%
CCN(Cc1nc(-c2ccc(OC)cc2)oc1C)S(=O)(=O)c1ccc(C)cc1	inactive: 66%
Cc1c(CCNC(=O)c2ccco2)sc2nc(-c3ccc(F)cc3)nn12	inactive: 76%
Cc1ccc(NC(=O)CN2CCSc3ccc(S(=O)(=O)N4CCCC4)cc32)cc1	inactive: 98%
CCc1ccc(Oc2c(C(F)(F)F)oc3c(CN4CCC(C)CC4)c(O)ccc3c2=O)cc1	inactive: 86%
CCCCN(CC)C(=O)c1cc2c(=O)n3cccc(C)c3nc2n1C	inactive: 82%
CC(=O)c1ccc(NC(=O)Cn2c(-n3nc(C)cc3C)nc(C)c(C)c2=O)cc1	inactive: 66%

Compound	survival
CCN(CC)c1cc2c(cc1F)c(=O)c(S(=O)(=O)c1ccc(OC)cc1)cn2Cc1ccccc1	inactive: 127%
CCOc1ccccc1Nc1nnc(-c2cc3cc(OC)ccc3oc2=O)s1	inactive: 73%
CCOC(=O)Cc1ccc(NC(=O)N2CCC(CN3CCCCCC3)CC2)cc1	inactive: 59%
COc1ccc(C(=O)N2CCC(C(=O)Nc3ccc(Cl)cc3)CC2)cc1	inactive: 122%
COc1cccc(CSc2nc3n(n2)C(CC(C)C)C(C(=O)Nc2ccccc2OC)=C(C)N3)c1 (stereo unspecified)	inactive: 83%
CCCCN(CC)CCCNC(=O)Cn1ncc2c3ccccc3n(C)c2c1=O	inactive: 123%
CCOc1ccc(S(=O)(=O)N(CC(=O)NCc2ccccc2OC)c2ccccc2)cc1	inactive: 58%
Cc1cc(=O)n2nc(N(C)CC(=O)NCc3cccc(Br)c3)sc2n1	inactive: 88%
CCOc1ccc(OCC)c(NC(=O)Cn2nc(CC)n3c(cc4sccc43)c2=O)c1	inactive: 89%
CC(C)/C(N)=N/OC(=O)c1ccc(I)cc1	inactive: 104%
CCc1cccc(NC(=O)Cn2c(=O)n(CC(=O)NCCc3ccccc3)c(=O)c3ccccc32)c1	inactive: 135%
CC(C)CCn1c(=O)c2sccc2n2c(CCCC(=O)NCCc3ccccc3)nnc12	inactive: 83%
O=C(NCCc1ccc(Cl)cc1)c1ccc(CS(=O)Cc2ccccc2Cl)o1 (stereo unspecified)	inactive: 62%
COc1cccc(CNC(=O)c2oc3c(c2C)-c2nn(Cc4cccc(Cl)c4)cc2CC3)c1OC	inactive: 73%
COc1ccccc1C(=O)N1CCC(c2noc(-c3ccc(S(=O)(=O)N4CCCC4)cc3)n2)CC1	inactive: 92%
CC(C)N(C)C1CCN(S(=O)(=O)c2ccc3[nH]c(=O)ccc3c2)CC1	inactive: 47%
COc1ccc(NC(=O)Cn2c(SCc3ccc(F)cc3)nc3cccnc32)cc1OC	inactive: 81%
Cc1cccc(NC(=O)C2CCN(c3nc4ccccc4[nH]3)CC2)c1C	inactive: 71%
COCC(=O)N1CCC(c2nc3ccccc3[nH]2)CC1	inactive: 121%

Compound	survival
Cc1cc(C)cc(N2C(=O)CSC23C(=O)N(CC(=O)Nc2ccc(F)cc2F)c2ccccc23)c1 (stereo unspecified)	inactive: 78%
O=C(Nc1ccc2nc(SCC(=O)N3CCCC3)sc2c1)c1cccc(Br)c1	inactive: 62%
CCOC(=O)c1cnc2c(C(F)(F)F)cccc2c1Cl	inactive: 136%
Cc1ccc(C)c(CNC(=O)CCn2cccn2)c1	inactive: 128%
CCN(CC)C(=O)c1csc(Nc2ccc(C)cc2)n1	inactive: 111%
CCOC(=O)c1oc2c(c1C)-c1nn(Cc3c(F)cccc3Cl)cc1CC2	inactive: 64%
CCOCCCN1C(=O)c2[nH]nc(-c3ccccc3O)c2C1c1ccc(CC)cc1 (stereo unspecified)	inactive: 63%
CCCCc1nn2c(=O)cc(COC(=O)c3ccc(NC(=O)CCc4ccccc4)cc3)nc2s1	inactive: 89%
Cc1ccc(NC(=O)C2CC(=O)n3cnnc3N2)cc1Cl (stereo unspecified)	inactive: 105%
CCCc1ccc(-c2ccc(C(=O)Oc3ccc(OCC)cc3)cc2)nc1	inactive: 67%
CCCCN(C)S(=O)(=O)c1ccc(C(=O)Nc2sc3c(c2C(N)=O)CC(C)(C)NC3(C)C)cc1	inactive: 68%
CCN(Cc1ccccc1)C(=O)Cn1c(=O)n(-c2ccc(Cl)cc2)c(=O)c2c(C)c(C(=O)N(C)C)sc21	inactive: 88%
Cc1c(CCC(=O)NCc2cccc(Cl)c2)c(=O)oc2c(C)c(O)ccc12	inactive: 88%
Cc1ccc(CCNC(=O)CS(=O)Cc2nc(-c3ccccc3C)oc2C)cc1 (stereo unspecified)	inactive: 77%
O=C(CSc1nc2c(oc3ccccc32)c(=O)n1Cc1ccco1)Nc1ccccc1Cl	inactive: 72%
O=C(Cn1cnc2c(oc3ccccc32)c1=O)Nc1ccc(F)cc1F	inactive: 113%
O=C(Cn1ncc2c3ccccc3n(Cc3cccc(Cl)c3)c2c1=O)NCc1cccs1	inactive: 91%
O=C(Nc1nc2ccccc2s1)c1ccc(S(=O)(=O)N2CCCC2)cc1	inactive: 80%
